Reference: the supplement of paper PMC3334620
Over roughly 33,000 sequences, “E-score (-0.5 to 0.5)” has its median near -0.011; the highest 2% begin near 0.28. The list shows a part of the results.

target: T1, Gcr1 (UniProt P07261); assay: PBM E-score (8-mer binding enrichment) (E-score (-0.5 to 0.5)); higher = stronger / more preferred TF binding; most listed sequences are background and not binding sites; details: protein concentration: 100 nM; construct: GST-full length
T1 sequence: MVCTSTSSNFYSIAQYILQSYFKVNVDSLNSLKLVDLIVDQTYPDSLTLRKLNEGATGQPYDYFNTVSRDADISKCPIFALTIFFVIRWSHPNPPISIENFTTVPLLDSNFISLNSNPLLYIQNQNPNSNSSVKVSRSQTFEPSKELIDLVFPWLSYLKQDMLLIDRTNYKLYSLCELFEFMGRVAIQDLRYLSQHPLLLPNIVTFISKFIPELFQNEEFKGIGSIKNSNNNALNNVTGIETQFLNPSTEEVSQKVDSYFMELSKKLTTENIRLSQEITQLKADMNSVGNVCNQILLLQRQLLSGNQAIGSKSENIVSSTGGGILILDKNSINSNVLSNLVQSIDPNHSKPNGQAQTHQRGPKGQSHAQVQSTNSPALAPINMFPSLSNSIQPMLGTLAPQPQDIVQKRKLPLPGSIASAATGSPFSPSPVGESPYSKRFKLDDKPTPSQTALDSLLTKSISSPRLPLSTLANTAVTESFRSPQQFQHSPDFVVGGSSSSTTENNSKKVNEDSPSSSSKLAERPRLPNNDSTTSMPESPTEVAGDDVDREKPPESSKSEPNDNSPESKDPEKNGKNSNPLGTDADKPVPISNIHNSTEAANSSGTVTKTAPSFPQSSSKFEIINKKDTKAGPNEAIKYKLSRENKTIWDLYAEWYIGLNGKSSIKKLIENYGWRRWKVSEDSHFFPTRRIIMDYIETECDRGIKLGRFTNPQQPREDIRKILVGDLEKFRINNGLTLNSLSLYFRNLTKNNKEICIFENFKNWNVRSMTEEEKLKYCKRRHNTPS
Summary of the method: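 The E-score, a modified Wilcoxon-Mann-Whitney statistic, was computed by the Universal PBM Analysis Suite for every ungapped eight-base word pooled with its reverse complement. Scans behind it were normalised with masliner after bound GST-tagged yeast transcription factors were detected with fluorescent anti-GST. The proteins, at about 100-200 nM, had been applied to universal all-10-mer Agilent arrays made double-stranded by primer extension.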

Sequence	PBM E-score
CACAACTC	0.0532
ATGCATCA	-0.0769
AAACGCCC	-0.168
ACAACACC	-0.0379
AATCGGGT	0.0963
CATTAAAG	-0.0176
CGCTAGAC	-0.14
CGCCGGCG	0.232
CTTAAAAC	0.152
CTGCGGGC	0.00331
CTGCGGCC	-0.118
GTTCGCAA	0.00147
ACTATAGT	0.168
AATATCAG	0.0824
AAAGTACC	-0.0184
TATAGAAA	-0.0715
AGACCGTC	-0.144
CCTCCGCG	0.0159
ACATAGGC	-0.0531
ATAGCCAC	-0.037
CCGATGTA	-0.0867
CTTCTACC	-0.00986
CAGTCGTA	-0.213
GTCTCGCA	-0.132
GAAGTACC	0.0406

Sequence	PBM E-score
GGCCCCCC	0.0498
GAAATAGA	-0.082
GATGAAAC	-0.0609
CGGGCGCA	0.0492
TAATTACA	0.107
AAAGTTTA	0.176
ATCGAAAA	-0.0428
CAGAAACG	0.104
GCGTCACC	-0.0167
AACCTTCC	0.0262
CTGAAATA	0.0471
CCATAAGA	0.224
CTCATGAG	-0.125
GAACTAGC	-0.0573
GCTTCAGA	-0.00295
ATCCAAAA	0.282
ATTAGCTG	0.107
AAACATGC	0.00059
AGTAACGC	-0.24
GGTTTACA	0.0125
AAGGCCTG	-0.155
AGCGGGGC	-0.0517
AGCGAATG	0.138
ACCATACG	-0.152
GGACGACA	-0.0723

Sequence	PBM E-score
CGCAGAAA	0.00636
GGTAGTGA	0.136
CAGTAAAG	-0.0638
AACGTTTC	-0.0951
AACACTGT	-0.0718
AATGAGAG	-0.0484
AACTTAAA	0.0926
ATACTACA	0.214
CACCAGCG	-0.0349
CCGCGGAC	-0.239
ATTGGCCC	-0.0572
GGGTAAAA	0.0145
CCGTAAAA	0.177
AGCAGCCT	0.369
AAATTTCG	0.138
ACACGGGG	-0.0128
AGGAAACC	0.116
AGTCAGTG	-0.0506
CTTGCCCA	-0.0141
GACGGAAA	0.00355
CTCCTCTA	0.124
CACCAACG	-0.0171
AAAGCTAC	-0.0941
CTCTTACC	-0.0288
GCATTCGA	-0.175

Sequence	PBM E-score
CCCCCGCG	-0.0255
CAGCAAAA	0.06
TCGTCTCA	-0.0595
CCCCGAAC	0.0657
CAGTGGTA	0.115
ACAGGGGC	-0.086
AAGACAGT	-0.0936
AGTAGAAG	0.327
CCCGTACC	-0.0406
ACTAGGAT	0.103
AACAGACT	-0.102
AGCTAGGA	0.0251
AAGGGGAA	0.156
GCACCCAC	0.397
ATAAGCGG	0.0191
AATCTGGG	0.175
CACTCAGA	-0.0497
GTGGATTA	-0.102
AGCAGGAC	-0.0439
GTGGCCGA	-0.00122
CAGTTAGC	0.0719
AAACTGAG	-0.163
AACGATCA	-0.186
AAATCGGT	-0.0156
TAGGAGAA	0.0199

Sequence	PBM E-score
ACTCGAGC	-0.1
CCCTTCAA	0.0622
AAACTCGT	-0.029
CCCCTGAC	-0.15
GATTCTCC	-0.05
TATGTGGA	0.224
ATGACCGG	-0.125
AGTATTTC	0.032
AGGTCGGC	-0.0908
AGATCCCT	-0.127
AACTCTAG	-0.0552
ACGGAGTG	-0.129
AGCGCCAT	0.191
CAAGTACC	-0.0508
ATATGCGG	0.0427
AGCCGCTC	-0.04
CTCCTCGC	-0.185
GGGACCCC	0.00587
AAGGAGGT	-0.0668
CTGCTAAC	-0.0691
ACCACACC	-0.0525
CACCTTCA	-0.102
ACCCGTGA	-0.0368
AGCCGCTG	0.0418
CTGGTAAC	0.168

Sequence	PBM E-score
CCTGTCGA	-0.159
AGTTGCCA	0.134
CTTCCCTA	-0.0119
ACTCCAAA	0.116
ACCATCCC	-0.17
GGGGAAGA	-0.101
ATCGCTAG	-0.06
TGCGAACA	0.0226
AATGACGG	0.0781
CACAGGGG	-0.0496
CACTGTGC	-0.16
AAAATGAG	0.146
TATGAAGA	0.0942
GCATTTTA	0.165
AGATGTGA	0.0328
AAGCAATT	-0.0848
AAAACTCA	0.0686
ACGGCACT	0.0128
GAATGATA	0.081
CATCGACC	-0.0578
CGTGTGAG	-0.221
ACGCGTTG	0.0124
GCTGTTAA	0.0207
CAGTGACG	-0.0872
ACAGCTAT	-0.158

Sequence	PBM E-score
CCGTCCTA	-0.158
ACGCTGAC	0.0847
CAGGCCCA	-0.2
ATCGAAAC	-0.0701
GTACCAAC	-0.0534
CCTGCGCA	-0.0647
GCCTAAAA	0.107
AGGAATCC	0.459
CCAGTTCG	0.104
CTTACGCC	-0.114
TACATCGA	0.0964
ATCGGGTA	-0.136
AAATACGA	0.156
ACGCTACC	-0.00855
ACTCCTTG	-0.097
GCCAACCC	-0.101
GAGGTTAA	-0.123
AGCGATTC	-0.0651
ATTTTATC	0.138
AGAGGCCC	0.0542
CAATTACC	0.157
ATTCTCGA	0.172
